# The RNAGym collection of RNA variant scans (doi:10.1073/pnas.2313332121)
# Variants at the floor of the assay are shown more often than the library holds them.
# B1: TPR 5TU (parent)
# chain: GGAUCUUCUCGAUCUAACAAAAAAGACAAAUCUGCCACAAAGCUUGAGAGCAUCUUCGGAUGCAGAGGCGGCAGCCUUCGGUGGCGCGAUAGCGCCAACGUUCUCAACUAUGACACGCAAAACGCGUGCUCCGUUGAAUGGAGUUUAUCAUG
# Variants of: B1
# Experiment: polymerase ribozyme fitness, log enrichment relative to wild type (log ratio); higher = more active; in vitro selection for triplet polymerase activity
# Summary of the method: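 Input and output libraries were sequenced on Illumina after a single in vitro selection round, run in triplicate on PCR-built, transcribed mutant libraries of each subunit of a heterodimeric triplet polymerase ribozyme. Selection annealed libraries to a biotinylated primer, the partner subunit and triplets, incubated them frozen at −7 °C, then gel-excised extended constructs for streptavidin-bead capture and RT-PCR. Genotypes with ≥10 input reads and ≥1 read per output were kept. Fitness is the logarithm, taken in base 2, of genotype enrichment divided by wild-type enrichment, using inverse-variance-weighted replicate averages.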
row,Variant,polymerase ribozyme fitness (log ratio)
1,C51A C69U G71A G80U C114U G152U,≤ -4.2
2,C51U G68C G83U U102G,≤ -4.2
3,C51U C57A G67A C76U U148A C149A,≤ -4.2
4,G50U G67A C76U G84C A98G C99U G141A,≤ -4.2
5,G50U C76U C87A U104G A107C C132G,≤ -4.2
6,A52C C93G A122G,-3.18
7,G50C G88U C93A,≤ -4.2
8,G50U U56A G88U C93G,≤ -4.2
9,G50U C95A U109G,-3.26
10,C51G C69G C85U,≤ -4.2
11,G50C C123U,-2.4
12,C51U C57U A66G C76G G83A C105G U135A G140A,≤ -4.2
13,G50C C93A G143A,≤ -4.2
14,G50C C87A C93A C99U A137U A138C,≤ -4.2
15,G50U G94A U104C G133U U148A A150C,≤ -4.2
16,G50C U55A A73G G92A A120C A150G,≤ -4.2
17,C51U U77G G133C,≤ -4.2
18,C51U G124A G133C G140A A150G,≤ -4.2
19,A52C G83C,-2.29
20,A52C C93U U102G,≤ -4.2
21,G50U C57G,0.0255
22,C51U C93U U109G C116U,-3.68
23,C51U G68U C87U U145C,≤ -4.2
24,G50C U56A C69G G81U G143A,≤ -4.2

row,Variant,polymerase ribozyme fitness (log ratio)
1,A52C C118U G143A U144C,-3.94
2,C51G A52U U55G G83A,≤ -4.2
3,A52C G65U G74C C87G C103G,≤ -4.2
4,C51G G81C C93A A106U,≤ -4.2
5,C51G G58U C93G C123U,≤ -4.2
6,A52C G74A A89C C95A,≤ -4.2
7,C51U C54G U56C C99U U111G U134A G140A U146A,≤ -4.2
8,C51A G94C,-1.47
9,G50C G62U C87A C129G G133A,≤ -4.2
10,G50U C85U C131U C132A G133A,≤ -4.2
11,C51A A52C C75A G83U G88C A91G C123G G126U A147U U151G,≤ -4.2
12,C51A C95U A119G,-1.34
13,C51A G68C,≤ -4.2
14,A52C C87A U134A,≤ -4.2
15,G50U A60U C75U,≤ -4.2
16,C51A C87U A106C U145C,≤ -4.2
17,C51U G86U U104A C108A G124U,≤ -4.2
18,C51G C72A G83C G136A G141A,≤ -4.2
19,C51U G141A,0.523
20,C51U C63U G83C U151C,≤ -4.2
21,C51G U78G C87U G143A,≤ -4.2
22,C51G G71C G86U G88A C116U G136A A147U C149G,≤ -4.2
23,C51U C93G A120C G143C,-4.17
24,C51G G86U U90G C93A,≤ -4.2

row,Variant,polymerase ribozyme fitness (log ratio)
1,C51A G83A C87A U104G A115G C125U,≤ -4.2
2,A52C C54U U78A C87U U135A,≤ -4.2
3,C51G U53G C87U A138C,≤ -4.2
4,G50C C85U C129G,≤ -4.2
5,C51U U139G U144A,0.259
6,G50C G88A,≤ -4.2
7,C51G C85U C95A A98C C99G C105A A115G,≤ -4.2
8,G50C G68A C87U,≤ -4.2
9,C51U C87U G88C C93G C118A G128U,≤ -4.2
10,G50U A52G C54A A60U G86A G92A U146A,≤ -4.2
11,A52C G68A C103G,≤ -4.2
12,A52C C149A,≤ -4.2
13,G50C G71C C79A C95G A121U U127G G136U U139C A142C U145G,≤ -4.2
14,C51G G133U,≤ -4.2
15,C51U G65A C76U C85U C116U U151C,≤ -4.2
16,C51U C72U G80A C85A U109G,≤ -4.2
17,C51A A52G C87G,≤ -4.2
18,G50C U53G U55A C87U C99A C132U U134A A138U U148G,≤ -4.2
19,C51U G59C A91U U109A,≤ -4.2
20,C51G U56A G68A C93U A97G U104G G143A U146A,≤ -4.2
21,A52C A73G A138G,≤ -4.2
22,G50C C76A C85U A91G U146G,≤ -4.2
23,C51U C54U C85A A106C,≤ -4.2
24,A52C A73G G84U A115G C123G G124C C129A,≤ -4.2

row,Variant,polymerase ribozyme fitness (log ratio)
1,G50U G88U U148G,≤ -4.2
2,G50U U78A,≤ -4.2
3,G50U G68U G86U,≤ -4.2
4,A52C G67C G81C C108G A138G A142G U145C,≤ -4.2
5,G50C U55A C72A A91C A142C,≤ -4.2
6,C51G G71A C72U U78G U82C G86A C99U U144G,≤ -4.2
7,C51U G58A G92C G136A U148C,-3.3
8,C51A G68A G81A C99G U135C,≤ -4.2
9,C51U C76A C85G C87U A107U G117U U130G C149A,≤ -4.2
10,G50U G84U,-1.81
11,C51U U53A C96A G140U,≤ -4.2
12,A52C C54U U55G G67C G71U C85U G143C,≤ -4.2
13,G50C U55G G83U C99A C108G C149U,≤ -4.2
14,G50C C87U A122U,-3.11
15,G50C C76G C85U U146G,≤ -4.2
16,G50U A60U C87U G94A U146A,≤ -4.2
17,G50C C75A G80C,≤ -4.2
18,C51A C85U U102G A147C A150U,≤ -4.2
19,G50U C54U C87A G141A A142C,≤ -4.2
20,A52C C85U G100A C116A U139A,≤ -4.2
21,G50U U127A G133U,≤ -4.2
22,G50C U55G G94A A106C U134A C149A,≤ -4.2
23,A52C G58C C132A,≤ -4.2
24,G50U U77G,≤ -4.2

row,Variant,polymerase ribozyme fitness (log ratio)
1,G50U C51U A73U C96U C116G,≤ -4.2
2,G50U A113C U139G,-3.93
3,G50U G65U C76A C79U C96A G141C,≤ -4.2
4,C51A C85A,-2.75
5,G50C G92U C131A A147C,≤ -4.2
6,A52C G68U C85A G88A,≤ -4.2
7,A52C G70A C72A C93U A97U U148G,≤ -4.2
8,G50C C93A C103G A113G A115U G140C,≤ -4.2
9,G50U A98U U146A U148G,≤ -4.2
10,C51A C54A G62C G70A G81A G140U,≤ -4.2
11,A52C C54U C95U C108G U145G,≤ -4.2
12,C51U A60C C85U A89G G126A A137U,≤ -4.2
13,C51U C57G U90C A110G,≤ -4.2
14,C51A G80U,≤ -4.2
15,G50C U55A A91U C93G,≤ -4.2
16,A52C C69G G74C,≤ -4.2
17,A52C C76A A89G C95G U104G A122G,≤ -4.2
18,A52C C57U A60C G62A G81U,≤ -4.2
19,C51G G59A G86A C105A A137U G141C A142C,≤ -4.2
20,C51U G92A C99A C149U,≤ -4.2
21,G50C U55A C75U G141U,≤ -4.2
22,G50C U90C C96U A119G A122G G128A,≤ -4.2
23,C51A C96U A97U,-2.73
24,C51A C54U C85G C96U U102A C125G,≤ -4.2

row,Variant,polymerase ribozyme fitness (log ratio)
1,A52C G65A G68C G86A U111C A142C,≤ -4.2
2,C51U G83U G86U G94A U135G U144G G152C,≤ -4.2
3,C51A G92U,-1.06
4,G50C U53A U56A C76U U78G C87G,≤ -4.2
5,C51U C85A C132A U135G G143C,≤ -4.2
6,G50C G67C C96G G133A,≤ -4.2
7,G50C G83A G88A A98G C149A,≤ -4.2
8,G50C C87A C129U G140A,≤ -4.2
9,G50U G88A,≤ -4.2
10,G50U G88C,≤ -4.2
11,G50U A91G,-2.52
12,C51A C87U C118U U144A U145G U148C,≤ -4.2
13,C51A U55A A64C A106C A137U,≤ -4.2
14,G50C C76A G86A A97G C99U A150G,≤ -4.2
15,C51G G65C G94C,≤ -4.2
16,C51G G94A U135A,-3.11
17,G50U G67U G84A C85U G141A,≤ -4.2
18,A52C C57U G86U C99U C118U C125G G143A U151A,≤ -4.2
19,G50C G112C U127C,≤ -4.2
20,C51U C95G C105G G117U,-3.53
21,C51G G74A U77G A91G C96U A98G A107G C118G A119C G128C A137U,≤ -4.2
22,C51G G71U,≤ -4.2
23,G50U C75A C95A U109C A122U G126A G136U,≤ -4.2
24,G50U C69G G80U A120U U139C G141C,≤ -4.2

row,Variant,polymerase ribozyme fitness (log ratio)
1,G50C U61A A64G G100A C108U G124A G133C,≤ -4.2
2,C51A C72U G74C C93A G141A,≤ -4.2
3,C51U C54U C57A A91G G92C U144C,≤ -4.2
4,C51U A66G G71U A91C C99U,≤ -4.2
5,C51A A52G U77C A115U U135A,≤ -4.2
6,G50U C57A C76A A122U C131G,≤ -4.2
7,C51G G88A,≤ -4.2
8,C51U G59U U82G C87U A97C A107C C108A,≤ -4.2
9,G50C G94A U127C G133U A138C,≤ -4.2
10,C51U A52C U56A C79A G92U A120G,≤ -4.2
11,C51A A52G G58A C85A C93G A107C,≤ -4.2
12,G50U C54U C93A G136U,-4.07
13,C51U G59A C93U C103G G140A,≤ -4.2
14,C51G C87U C114G,≤ -4.2
15,G50C C75U G84U U101G,≤ -4.2
16,G50U C105U,0.638
17,A52C G74C U104A,≤ -4.2
18,C51U U61A G84U,-2.8
19,G50C G86U U111G,≤ -4.2
20,G50C G74C A106G A107G U134A,≤ -4.2
21,G50C C96U A97U C99U,≤ -4.2
22,G50C U53A C95G,≤ -4.2
23,A52C G71A C85A G94C G141U,≤ -4.2
